The other results are listed elsewhere or left out.
T1: UNK ZnF1-3 (human, UniProt Q9C0B0 31-174)
T1 sequence: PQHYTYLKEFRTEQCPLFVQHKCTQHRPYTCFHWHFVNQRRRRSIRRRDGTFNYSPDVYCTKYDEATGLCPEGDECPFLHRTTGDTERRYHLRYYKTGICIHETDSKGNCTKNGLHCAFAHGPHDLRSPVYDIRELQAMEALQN

B1: chr12:48362563:48362564:+_ENSG00000134291_ENST00000256686|hu_hu|hu_hu_hu_mus_False|48_78 (ssRNA)
RNA: GGGAGUUCUACAGUCCGACGAUCUCCGUCAAGCCCUUCGAUAGACCCUUGCGGGGGUGGUAAAAACCACUUUGUAUGGGGAAGGAAAAAAAAAGCCAAAAACUUUCCAAAAAGCGGGGGUGGGGUGAGGCGGGAGGGGGAGGUCAACAGAGGAUUGAGCAUCA
B2: chr5:34944098:34944099:+_ENSMUSG00000029106_ENSMUST00000114338|mus_hu|FALSE|FALSE (ssRNA)
RNA: GGGAGUUCUACAGUCCGACGAUCUUGCUCCAUCAUGUUGAAGUCCUGGCGAAGGUCUGGUGCCAUGUUCCUCUCCCUCAAGUACUCUGGGUUGUUCUCAUCUACUCGGUCGAAGUACCUCUCCUUGUGAGGGGCUGUGGUCGGCAACAGAGGAUUGAGCAUCA
B3: chr11:86132931:86132932:-_ENSMUSG00000034297_ENSMUST00000043624|mus_hu|motif|central (ssRNA)
RNA: GGGAGUUCUACAGUCCGACGAUCUCCAAAAGGUCCAACUGGAUCAUCCUUGAAUUUAUCACUUGGAAGUUGAGGUGGUAAAAACUCGGCAUCUUUUUUCUUUGGGAACUUGUAAUACUUCCAGGCUAUAUUGGCUUCAUCUUCCAACAGAGGAUUGAGCAUCA
B4: chr9:88635815:88635816:+_ENSG00000135040_ENST00000361671|hu_mus|motif|central (ssRNA)
RNA: GGGAGUUCUACAGUCCGACGAUCUCCUCCUGCUAAGAGCUUCAUAACCACAAAGUUGGGCUUGGCAACCUUCAGGAUUCGGCUGACCUCACGGUCUGGAUUGGGGAUAUUUUCAAGGAUCAUUUUUGCCUGCUGAAAGUGCUUCAACAGAGGAUUGAGCAUCA
B5: 78564915_78565035_256_CDS_ENSMUSG00000049489_ENSMUST00000059468|mouse|control|control (ssRNA)
RNA: GGGAGUUCUACAGUCCGACGAUCGCCGGCCAAGUAAAUGGAAGACAUGGCGACCAGGUAGAGGUCAUAUGCGUCCAGGUUGAUCUCGCAGAAGAACUUAUGGUAAAUGGUGCAAGCGGUGGCGAUGGGGAUGGACUGCAUGCCCAACAGAGGAUUGAGCAUCA
B6: chr11:29096238:29096239:+_ENSMUSG00000020463_ENSMUST00000020755|mus_mus|motif|central (ssRNA)
RNA: GGGAGUUCUACAGUCCGACGAUCUUGCAAGUCAUCCAUGCCCAUUACAAUUUCAAGAGCUGGAAGAAUUCCCAAUUUUGCGGAGGUUUUGAAAAAAGCAUCCCUGUUCUGAGGUUGCAAUGUCUGAGAAAAUGCACAAAAUUCCAACAGAGGAUUGAGCAUCA

Each binder was assayed against T1, UNK ZnF1-3 (assay: nsRBNS (natural sequence RNA bind-n-seq); RBNS binding buffer (assumed for nsRBNS): 25 mM Tris pH 7.5, 150 mM KCl, 3 mM MgCl2, 0.01% Triton X-100, 500 ug/ml BSA, 20 U/ml SUPERase-In, 4 C; UNK is unkempt and MSI1 is Musashi-1; names of the RNAs are library labels; protein concentration not given here; high values mean tight binding).
For B1, the binding signal was 1.62 enrichment R. Binder B2 has a binding signal of 0.628 enrichment R. B3 gave a binding signal of 0.728 enrichment R. B4 gave a binding signal of 0.963 enrichment R. With B5 the binding signal was 1.15 enrichment R. B6 was tested, and the binding signal was 1.3 enrichment R.

— PMC12136788
